In article PMC4336329 (PLoS ONE, 2015):
The whole screen tested about 310,000 compounds, of which about 14,000 (4.5%) showed an effect of 50% or more. Effects have a minus sign here. The list shows a part of the results.

These molecules were tested against human ether-à-go-go-related gene (hERG) potassium channel (human, UniProt Q12809) (assay: primary screen, population patch clamp on CHO cells stably expressing hERG).
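Further: peak tail current of the secondary pulse compared with the same well before compound.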

Sequence of human ether-à-go-go-related gene (hERG) potassium channel (Q12809 whole entry, looked up): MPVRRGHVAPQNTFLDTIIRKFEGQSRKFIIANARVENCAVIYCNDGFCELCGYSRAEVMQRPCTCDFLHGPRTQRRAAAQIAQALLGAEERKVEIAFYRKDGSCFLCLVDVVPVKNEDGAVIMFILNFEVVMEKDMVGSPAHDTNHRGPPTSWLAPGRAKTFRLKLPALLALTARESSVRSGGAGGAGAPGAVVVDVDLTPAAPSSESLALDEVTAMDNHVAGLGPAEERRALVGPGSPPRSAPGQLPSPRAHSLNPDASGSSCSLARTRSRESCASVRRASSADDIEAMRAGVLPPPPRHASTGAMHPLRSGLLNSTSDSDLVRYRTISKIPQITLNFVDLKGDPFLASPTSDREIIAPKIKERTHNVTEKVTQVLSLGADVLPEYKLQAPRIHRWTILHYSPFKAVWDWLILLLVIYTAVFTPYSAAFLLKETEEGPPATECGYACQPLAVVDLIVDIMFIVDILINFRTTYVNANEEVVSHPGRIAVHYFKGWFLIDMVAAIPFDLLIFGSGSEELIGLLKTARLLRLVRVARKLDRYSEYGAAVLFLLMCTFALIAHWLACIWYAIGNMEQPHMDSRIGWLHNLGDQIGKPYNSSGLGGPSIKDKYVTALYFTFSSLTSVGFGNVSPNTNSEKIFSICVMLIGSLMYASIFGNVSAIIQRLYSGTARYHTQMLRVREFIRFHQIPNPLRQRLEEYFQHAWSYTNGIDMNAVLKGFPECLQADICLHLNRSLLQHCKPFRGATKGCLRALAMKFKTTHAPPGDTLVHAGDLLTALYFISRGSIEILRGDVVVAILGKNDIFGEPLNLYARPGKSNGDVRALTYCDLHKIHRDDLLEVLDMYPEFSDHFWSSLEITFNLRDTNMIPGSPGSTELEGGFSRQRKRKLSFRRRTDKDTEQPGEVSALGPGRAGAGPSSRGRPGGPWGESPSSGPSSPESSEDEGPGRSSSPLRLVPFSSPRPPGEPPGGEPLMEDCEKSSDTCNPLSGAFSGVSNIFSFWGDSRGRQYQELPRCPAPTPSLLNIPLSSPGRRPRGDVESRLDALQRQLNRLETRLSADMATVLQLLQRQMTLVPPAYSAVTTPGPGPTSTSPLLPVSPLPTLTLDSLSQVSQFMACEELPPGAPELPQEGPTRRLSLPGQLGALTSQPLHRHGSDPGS

**Q.** With `CC(C)(C)C(CCl)C(=O)NN=C(c1ccccc1)c1ccccc1` (centres unmarked) as the molecule, how does the “hERG current change (%, negative = inhibition) at 10uM” value read?
**A.** The value was 5.54%.

**Q.** Which “hERG current change (%, negative = inhibition) at 10uM” value does the source give for `O=C(CN1CC(c2ccccc2)CC1=O)NCc1ccc(F)cc1` (centres unmarked) here?
**A.** Its value is -3.65%.

**Q.** For `CCC(Sc1nccn1C)C(=O)Nc1ccc(Cl)cn1` (centres unmarked), which “hERG current change (%, negative = inhibition) at 10uM” value is on record?
**A.** The value was 5.78%.

**Q.** For `COc1cc(OC)cc(C(=O)NC(C(=O)OCn2nnc3ccccc3c2=O)C(C)C)c1` (centres unmarked), which “hERG current change (%, negative = inhibition) at 10uM” value is on record?
**A.** Its value is -21.4%.

**Q.** Which “hERG current change (%, negative = inhibition) at 10uM” value does the source give for `CN1CN=C(N[N+](=O)[O-])N(Cc2ccco2)C1` here?
**A.** Its value is 16.3%.

**Q.** How did the “hERG current change (%, negative = inhibition) at 10uM” value turn out when `O=C(Nc1cccc(Cl)c1)Nc1cccc(C(=O)O)c1` was run?
**A.** Its value is 17.7%.

**Q.** `COc1ccc(C(=O)C2CCCN(Cc3ccc(C)s3)C2)cc1OC` (centres unmarked) was tested. Which “hERG current change (%, negative = inhibition) at 10uM” value did it give?
**A.** Its value is -71.6%.

**Q.** Which “hERG current change (%, negative = inhibition) at 10uM” value does the source give for `CCOC(=O)c1sc(NNC(=O)c2ccc(C)cc2)nc1C` here?
**A.** Its value is -18.5%.

**Q.** `CC1CCCCN1S(=O)(=O)c1ccc2c(c1)C(C)(C)C(=O)N2C` (centres unmarked) was tested. Which “hERG current change (%, negative = inhibition) at 10uM” value did it give?
**A.** The value was 1.72%.

**Q.** For `CC(=O)Nc1nc(SCC(=O)NCC2CCCO2)[nH]c(=O)c1NC(=O)c1cccs1` (centres unmarked), which “hERG current change (%, negative = inhibition) at 10uM” value is on record?
**A.** Its value is 16.3%.

**Q.** `COc1ccc2c(c1)CCc1cn3nc(C)cc3nc1-2` was tested. Which “hERG current change (%, negative = inhibition) at 10uM” value did it give?
**A.** Its value is 13.1%.

**Q.** How did the “hERG current change (%, negative = inhibition) at 10uM” value turn out when `C[C@H](NC(=O)Cn1cncn1)c1ccccc1` was run?
**A.** Its value is 20.4%.

**Q.** For `C=CCn1c(-c2ccc(OC)cc2)nc2ccccc21`, which “hERG current change (%, negative = inhibition) at 10uM” value is on record?
**A.** The value was -17.1%.

**Q.** `Fc1ccc2nc(Nc3ccccc3)sc2c1` was tested. Which “hERG current change (%, negative = inhibition) at 10uM” value did it give?
**A.** The value was 11%.

**Q.** Which “hERG current change (%, negative = inhibition) at 10uM” value does the source give for `COc1ccc(C(CNC(=O)CCNC(=O)c2ccccc2OC)N2CCCC2)cc1` (centres unmarked) here?
**A.** The value was -14.1%.

**Q.** For `COC(=O)N/N=C/c1c[n+]([O-])c2ccccc2[n+]1[O-]`, which “hERG current change (%, negative = inhibition) at 10uM” value is on record?
**A.** The value was 18.9%.

**Q.** Which “hERG current change (%, negative = inhibition) at 10uM” value does the source give for `O=C(Nc1ccccc1)Nc1cccc(-c2cn3cccnc3n2)c1` here?
**A.** The value was 36%.

**Q.** `CCOc1ccc(-c2nc(=S)[nH][nH]2)cc1` was tested. Which “hERG current change (%, negative = inhibition) at 10uM” value did it give?
**A.** The value was 17.5%.

**Q.** Which “hERG current change (%, negative = inhibition) at 10uM” value does the source give for `Cc1ccc(Nc2cc(-n3nc(C)cc3C)ncn2)cc1` here?
**A.** The value was 12.9%.

**Q.** For `OCCNC(=S)Nc1ccc2nsnc2c1`, which “hERG current change (%, negative = inhibition) at 10uM” value is on record?
**A.** The value was 42.4%.

**Q.** For `COc1ccccc1N1CCN(C(=O)CCC(=O)Nc2nnc(C(C)C)s2)CC1`, which “hERG current change (%, negative = inhibition) at 10uM” value is on record?
**A.** Its value is -10.1%.

**Q.** How did the “hERG current change (%, negative = inhibition) at 10uM” value turn out when `COC(=O)c1cn(C(=O)c2ccccc2)c2ccccc12` was run?
**A.** The value was -7.75%.

**Q.** With `COc1ccc(OC)c(S(=O)(=O)NCc2ccc(N3CCN(C)CC3)cc2)c1` as the molecule, how does the “hERG current change (%, negative = inhibition) at 10uM” value read?
**A.** Its value is 0.373%.

**Q.** Which “hERG current change (%, negative = inhibition) at 10uM” value does the source give for `Cc1cccc(Nc2nc(N)c([N+](=O)[O-])c(N3CCN(C)CC3)n2)c1` here?
**A.** The value was -48%.

**Q.** Which “hERG current change (%, negative = inhibition) at 10uM” value does the source give for `Cc1cc(C)n(Cc2ccc(C(=O)Nc3ccc(Br)cc3C)o2)n1` here?
**A.** Its value is -19.4%.

**Q.** With `COc1ccc(-c2[nH]ncc2CN(C)Cc2cccnc2)c(F)c1` as the molecule, how does the “hERG current change (%, negative = inhibition) at 10uM” value read?
**A.** Its value is -1.66%.

**Q.** With `CCOC(=O)c1c(-c2ncc(C(F)(F)F)cc2Cl)noc1C` as the molecule, how does the “hERG current change (%, negative = inhibition) at 10uM” value read?
**A.** The value was 0.575%.

**Q.** With `Cc1nnc(NC(=O)CSc2nnc(Cc3ccccc3)n2-c2ccccc2)s1` as the molecule, how does the “hERG current change (%, negative = inhibition) at 10uM” value read?
**A.** Its value is 6.1%.

**Q.** For `COc1ccc(-c2cc(-c3ccc(OC)cc3)c(C#N)c(SC)n2)cc1`, which “hERG current change (%, negative = inhibition) at 10uM” value is on record?
**A.** Its value is 5.38%.

**Q.** For `COc1ccc(/C=C/C(=O)Nc2c(C)nn(C)c2C)cc1COc1ccc(Cl)cc1Br`, which “hERG current change (%, negative = inhibition) at 10uM” value is on record?
**A.** The value was 10.5%.

**Q.** `CC(=O)Nc1ccc(-c2nnn(CC(=O)c3ccccc3)n2)cc1Cl` was tested. Which “hERG current change (%, negative = inhibition) at 10uM” value did it give?
**A.** Its value is 6.77%.

**Q.** Which “hERG current change (%, negative = inhibition) at 10uM” value does the source give for `N/C(CCS(=O)(=O)c1ccc(Cl)cc1)=N\OC(=O)c1ccccc1Cl` here?
**A.** The value was -29.2%.

**Q.** With `COc1ccc(CN2[C@@H](CC(=O)O)c3ccc(C(F)(F)F)cc3S2(=O)=O)cc1` as the molecule, how does the “hERG current change (%, negative = inhibition) at 10uM” value read?
**A.** The value was -14%.

**Q.** With `COc1ccccc1NC(=O)Oc1ccc(NC(=O)c2ccco2)cc1` as the molecule, how does the “hERG current change (%, negative = inhibition) at 10uM” value read?
**A.** Its value is 0.869%.

**Q.** With `O=C(Nc1ccccc1C(=O)N1CCCCC1)C1CCCCC1` as the molecule, how does the “hERG current change (%, negative = inhibition) at 10uM” value read?
**A.** The value was 5.76%.

**Q.** With `O=C(C1=CC=CN2CCS(=O)(=O)N=C12)N1CCN(c2cccc(Cl)c2)CC1` as the molecule, how does the “hERG current change (%, negative = inhibition) at 10uM” value read?
**A.** Its value is 25.5%.

**Q.** Which “hERG current change (%, negative = inhibition) at 10uM” value does the source give for `CCSc1nnc(NC(=O)C(C)C)s1` here?
**A.** Its value is -4.84%.

**Q.** How did the “hERG current change (%, negative = inhibition) at 10uM” value turn out when `C=C1CCC[C@]2(C)C[C@H]3OC(=O)C(CN4CCCCC4CO)[C@H]3CC12` (some centres unmarked) was run?
**A.** Its value is 11.7%.

**Q.** For `O=C(O)CC12CC3CC(C1)CC(n1ncc(NCc4ccc(F)cc4Cl)c(Cl)c1=O)(C3)C2`, which “hERG current change (%, negative = inhibition) at 10uM” value is on record?
**A.** The value was 18.3%.

**Q.** With `CCC(CC)CN1C(N(C)C)=NC[C@@H]1CC(C)C` as the molecule, how does the “hERG current change (%, negative = inhibition) at 10uM” value read?
**A.** Its value is -4.65%.

**Q.** Which “hERG current change (%, negative = inhibition) at 10uM” value does the source give for `O=[N+]([O-])c1ccc(N2CCCCC2)cn1` here?
**A.** Its value is 8.92%.

**Q.** How did the “hERG current change (%, negative = inhibition) at 10uM” value turn out when `COc1ccc(C(c2sc3nc(C)nn3c2O)N2CCC(O)CC2)cc1OC` (centres unmarked) was run?
**A.** The value was 1.72%.

**Q.** For `Cc1ccc(CC(=O)CCc2ccccc2)cc1`, which “hERG current change (%, negative = inhibition) at 10uM” value is on record?
**A.** Its value is 14.4%.

**Q.** With `O=C(Cc1ccc(Cl)cc1)NC(=S)Nc1ccccc1O` as the molecule, how does the “hERG current change (%, negative = inhibition) at 10uM” value read?
**A.** The value was 16.8%.
